Data taken from PubChem BioAssay AID1159614 (National Center for Advancing Translational Sciences (NCATS), 2016).
Screen size: about 45,000 compounds; about 65 (0.1%) were called active. Calls follow the shape of the dose curve; as a rule, active = well fitted activation curve with a large enough effect; inconclusive = small, poorly fitted or top-dose-only effect; inactive = no such curve, though single readings can be large or run the other way. The list shows a part of the results.

Target: Galactocerebrosidase (Homo sapiens) (UniProt P54803)
Test: A Novel Cell-Based Assay to Identify Small Molecules for B -Galactocerebrosidase; also: 0% is about no effect; nearly all actives have a fitted effect of over 65% in size
Details: 145M-Twi-hGALC-G270D cells (Twitcher mouse brain line with human GALC G270D), HMU-beta-Gal fluorescence, 48 h; series mostly up to 57.5 µM; activation: at the top concentration
In short: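 Live 145M-Twi cells (Twitcher mouse brain-derived, GALC-null) stably expressing human GALC-G270D, with a wild-type GALC line, were compound-treated. Residual GALC activity was then read as fluorescence from 0.1 mM final HMU-β-gal at pH 5.2; higher signal means activation.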

Sequence of UniProt P54803 (P54803 whole entry, looked up): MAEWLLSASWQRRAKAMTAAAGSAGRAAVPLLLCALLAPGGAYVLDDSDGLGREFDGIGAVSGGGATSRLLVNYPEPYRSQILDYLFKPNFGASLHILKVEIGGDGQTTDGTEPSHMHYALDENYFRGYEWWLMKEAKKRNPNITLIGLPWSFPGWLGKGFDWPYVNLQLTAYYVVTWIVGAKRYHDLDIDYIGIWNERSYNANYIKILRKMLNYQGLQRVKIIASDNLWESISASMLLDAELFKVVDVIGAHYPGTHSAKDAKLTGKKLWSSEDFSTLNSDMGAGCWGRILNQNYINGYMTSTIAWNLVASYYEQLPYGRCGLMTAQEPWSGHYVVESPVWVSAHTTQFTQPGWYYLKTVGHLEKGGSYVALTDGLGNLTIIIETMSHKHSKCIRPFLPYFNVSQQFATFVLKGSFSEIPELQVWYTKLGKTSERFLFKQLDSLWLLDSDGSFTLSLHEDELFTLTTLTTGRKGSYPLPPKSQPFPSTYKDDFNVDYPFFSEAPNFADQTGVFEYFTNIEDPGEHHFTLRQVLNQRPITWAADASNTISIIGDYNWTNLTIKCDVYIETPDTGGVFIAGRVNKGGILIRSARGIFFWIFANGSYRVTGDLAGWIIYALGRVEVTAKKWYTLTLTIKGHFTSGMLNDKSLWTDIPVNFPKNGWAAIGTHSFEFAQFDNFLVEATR

activation, inactive:
COc1cccc(C(=O)N(Cc2nc(-c3ccc(Cl)cc3)no2)C(C)C)c1OC -36.2%
COc1ccc(NC(=O)c2nc(-c3ccc(C)cc3)n3c2CCCCC3)cc1 -26.2%
COc1ccc(-n2ccnc(NCCc3ccccc3)c2=O)cc1OC -7.78%
O=C(c1ccc(F)cc1)n1nc(-c2cccnc2)nc1NCc1ccccc1 -11.4%
CCN(C(=O)C1CCN(S(=O)(=O)c2c(C)noc2/C=C/c2ccc(C)cc2)CC1)c1cccc(C)c1 -13.3%
CCOc1ccc(-c2nonc2NC(=O)c2oc3ccc(CC)cc3c2C)cc1 4.41%
CN1CCN(CCNC(=O)c2cnn(-c3ccc(Cl)cc3)c2C2CCN(C(=O)OC(C)(C)C)CC2)CC1 -13.4%
Cc1ccc(CNC(=O)c2cnc3c(-c4ccc(F)cc4)c(C)nn3c2C)o1 -10.6%
COc1ccc(Cl)cc1NC(=O)c1cnc2sc(N3CCOCC3)nn2c1=O 1.44%
O=C(CCCCCn1c(=O)c2sccc2n(Cc2ccccc2Cl)c1=O)NCc1ccc2c(c1)OCO2 -31.7%
COc1ccc(CCNC(=O)C(C)n2nc(C)c3sc4ccccc4c3c2=O)c(OC)c1 (centres undefined) -17.4%
Cc1ccc(S(=O)(=O)Nc2ccc3nc(-c4cccc(Cl)c4)oc3c2)cc1 -8.54%
CCC(=O)N1CCc2cc(S(=O)(=O)NC(Cc3ccccc3)C(=O)O)ccc21 (centres undefined) -2.05%
COc1ccc(NC(=O)CSc2nc3ccccc3c(=O)n2CCC(=O)NC2CCCCC2)c(OC)c1 -6.24%
CCc1ccc(-c2cn3nc(CC)sc3n2)cc1 -11.3%
Cc1cccc(NC(=O)CSC2=Nc3ccccc3C3=NC(CCC(=O)NCc4ccco4)C(=O)N23)c1 (centres undefined) -18%
COc1cc(OC)c(NC(=O)Cn2ncn3c(cc4cc(C)ccc43)c2=O)cc1Cl -10.6%
COC(=O)c1sccc1S(=O)(=O)N(CC(=O)Nc1cccc(C)c1C)c1ccc(C)c(C)c1 -2.47%
COc1ccccc1CNC(=O)Cn1cc2c(n1)-c1c(oc(C(=O)N3CCOCC3)c1C)CC2 -1.46%
COc1ccc(Cn2c(CO)cnc2SCc2ccc(C)cc2)cc1 -6.27%
CC(C)(C)OC(=O)N1CCC(c2c(C(=O)N3CCN(Cc4ccccc4)CC3)cnn2-c2cccc(Cl)c2)CC1 -18%
CC(C)CN(CCNC(=O)CCN1N=C(c2ccccc2)CCC1=O)CC(C)C -15.7%
CCc1ccccc1NC(=O)c1ccc2c(c1)CCCN2S(C)(=O)=O -8.97%
Cc1ccc(-c2onc(C)c2C)cc1S(=O)(=O)Nc1ccccn1 -7.84%
CCSc1nc2ccccc2c(OCc2ccc(Cl)cc2)c1C(=O)OC -1.51%
COc1ccc2c(c1)c1c(c(=O)n(CCc3ccccc3)c(=O)n1Cc1cccc(F)c1)n2C -1.38%
CCc1cccc(C)c1NC(=O)CSc1nc2ccccc2nc1Cc1ccccc1 -3.72%
Cc1ccc(NC(=O)c2oc3ccc(S(=O)(=O)N4CCC5(CC4)OCCO5)cc3c2C)cc1Cl 10.8%
CC(=O)N1CCC(N(CCCOC(C)C)C(=O)Nc2ccc(C)c(C)c2)CC1 -8.77%
COc1ccc(-c2nc3cc(NC(=O)COc4ccccc4C)ccc3o2)cc1 -1.23%
COc1ccc(CCNC(=O)CN(c2ccccc2)S(=O)(=O)N(C)C)cc1OC 2.06%
COc1cc(C(c2c(C)[nH][nH]c2=O)c2c(C)[nH][nH]c2=O)ccc1OC(=O)c1ccccc1OC -18.4%
COC(=O)CC1Oc2ccccc2-n2cc(-c3ccc(F)cc3)nc21 (centres undefined) -8.75%
CCOC(=O)C(C)NC(=O)c1c2c(nc3ccccc13)C(=O)N(C1CCCCC1)C2 (centres undefined) -10.6%
CCc1c(C)sc2c1CCN(Cc1ccc(C#N)cc1)C2c1ccccc1 (centres undefined) -7.08%
O=C(CN1C(=O)CCSc2ccc(S(=O)(=O)N3CCCC3)cc21)Nc1cccc(F)c1 -12.8%
Cc1cccc(N(C)S(=O)(=O)c2cc(-c3cnc(C4CC4)o3)ccc2C)c1 -26.3%
Cc1ccc(Cl)cc1-n1nnc(-c2nc(-c3ccc4c(c3)OCO4)no2)c1C -25%
COc1ccc(Nc2nn3c(=O)c4cc5c(cc4nc3s2)OCO5)c(OC)c1 -16.4%
CCC(=O)N1c2ccc(S(=O)(=O)CCC(=O)Nc3ccc(OC)cc3OC)cc2CC1C (centres undefined) -14.3%
CCc1ccc(C2c3c(-c4ccccc4O)n[nH]c3C(=O)N2Cc2cccnc2)cc1 (centres undefined) -10.1%
CCOc1ccc(/C=C/C(=O)Nc2ccc3nc(N(CC)CC)cc(C)c3c2)cc1OC -19.6%
O=C(CCNS(=O)(=O)c1ccc2c(c1)CCN2C(=O)C1CC1)N1CCN(c2cccc(Cl)c2)CC1 -29.6%
CC(C)CCNC(=O)C1CCN(C(=O)c2cc3sccc3n2Cc2ccc(Cl)cc2)CC1 -16.1%
COc1ccc(-c2nc(CS(=O)CC(=O)NCCc3ccc(Cl)cc3)c(C)o2)cc1OC (centres undefined) -20.1%
CCc1ccc(-n2nc(CO)c(C(=O)NC)n2)cc1 5.02%
Cc1ccc(CS(=O)(=O)c2ncc(Cl)c(C(=O)Nc3nnc(C(C)C)s3)n2)cc1 -18.6%
CCN1CCN(c2ncc3c(n2)CCN(Cc2ccccc2C)C3)CC1 -11.2%
CCC(=O)N1CCc2cc(CNS(=O)(=O)c3ccc(CC(C)C)cc3)ccc21 0.808%
Oc1c(C(c2ccc(F)cc2)N2CCN(Cc3ccccc3)CC2)sc2nc(-c3ccco3)nn12 (centres undefined) -3.15%
CCCCNC(=O)CCCN1C(=O)c2ccccc2Sc2ncccc21 -11.3%
CN1C(=O)C2(c3ccccc31)N(c1cccc(C(F)(F)F)c1)C(=O)CS2(=O)=O (centres undefined) -23.1%
Cc1cccc(N2CCN(C(=O)Cn3c(-c4cccs4)cc4ccccc43)CC2)c1C -6.51%
COc1cc(CN(C(=O)c2ccccc2F)C2CCS(=O)(=O)C2)cc(OC)c1OC (centres undefined) -28.5%
CCCS(=O)(=O)N1CC(=O)N(c2ccc(C)c(Cl)c2)C(C)(C(=O)NC2CCCCCC2)C1 (centres undefined) -12.2%
Cc1ccc(C)c(N2C(=O)N(Cc3c(F)cccc3Cl)c3ccccc3S2(=O)=O)c1 6.46%
COc1ccc(N(CC(=O)Nc2ccc(C)c(C)c2)S(=O)(=O)c2ccc(C)cc2)cc1OC -12%
Cc1cccc(C)c1NC(=O)CN1C(=O)CCSc2ccc(S(=O)(=O)N3CCCC3)cc21 -11.7%
COC(=O)c1cc(NC(=O)Nc2ccc3snnc3c2)cc(C(=O)OC)c1 -4.49%
O=C(COc1ccccc1)Nc1sc2c(c1C(=O)Nc1ccccc1Cl)CCCCC2 -6%
CCN(Cc1nc(-c2cccc(C)c2)no1)S(=O)(=O)c1ccc(C)cc1 -5.41%
CC(=O)OCc1cc(=O)n2nc(C3CCCCC3)sc2n1 -5.47%
Cc1ccccc1-c1noc(-c2ccc(N3CCN(c4ccccc4)CC3)c([N+](=O)[O-])c2)n1 3.97%
COc1ccc(CNC(=O)Cn2nc(C)n3cccc3c2=O)cc1 -13.2%
COc1ccc(-c2nc(SCC(=O)NC3CCCC3)c(-c3ccc(OC)cc3)[nH]2)cc1 -23.6%
COc1ccccc1N1CCN(C(=O)c2cc3c(=O)n(C)c4ccccc4c3s2)CC1 -11.8%
CCc1cccc2c(CCO)c[nH]c12 -10.1%
Cc1ccc(NC(=O)C(=O)NCC(c2cccnc2)N2CCOCC2)cc1 (centres undefined) -8.39%
CC1CCN(C(=O)c2ccc3c(c2)N(Cc2ccccc2F)C(=O)c2ccccc2S3(=O)=O)CC1 -3.44%
COc1ccc(S(=O)(=O)n2nc(C)c(S(=O)(=O)N3CCCCC3)c2C)cc1 -19.2%
Cc1c(Cl)cccc1-n1ncc(C(=O)N2CCN(C)CC2)c1C1CCN(C(=O)OC(C)(C)C)CC1 19%
CC(=O)c1ccc(N2CCN(c3ncnc4c3c(-c3ccccc3)cn4-c3ccc(C)c(Cl)c3)CC2)cc1 -0.106%
CC(C)Cn1c(=O)c2ccccc2n2c(CCC(=O)N3CCN(c4cccc(Cl)c4)CC3)nnc12 -7.75%
COCCCN(Cc1ccco1)C(=O)c1cc2c(s1)-c1ccccc1OC2 -1.86%
COc1ccccc1-c1noc(-c2ccc(N3CCOCC3)c([N+](=O)[O-])c2)n1 18.8%
CCc1ccc(NC(=O)CC(c2cc(OC)c(OC)c(OC)c2)N2Cc3ccccc3C2=O)cc1 (centres undefined) 3.15%
COc1ccc(CCNC(=O)Cn2cc(C(=O)c3ccc(Cl)cc3)c(=O)c3ccc(C)nc32)cc1OC -6.83%
FC(F)(F)c1cccc(-n2cc(-c3ccccc3)c3c(N4CCCCC4)ncnc32)c1 7.22%
CCOC(=O)C1CCN(c2nc3c(S(=O)(=O)c4ccc(Br)cc4)nnn3c3ccsc23)CC1 -18.1%
CCCN(CCC)CCNC(=O)Cn1cnc2sc(C)c(S(=O)(=O)N3CCC(C)CC3)c2c1=O -26%
COc1ccc(C(=O)NCCn2cc(SCc3cccc(F)c3)c3ccccc32)cc1OC -26.3%
COc1ccccc1CNC(=O)CN1C(=O)CCc2cc(S(=O)(=O)N3CCCCC3)ccc21 7.53%
Cc1ccc(N2CC(C(=O)NCCS(=O)(=O)N3CCN(c4ccccc4)CC3)CC2=O)cc1 (centres undefined) -20.2%
COc1ccc(S(=O)(=O)N(CCc2ccccc2)CC(=O)NCc2ccccc2)cc1 -14.3%
COCCN1C(=O)c2oc3cc(C)cc(C)c3c(=O)c2C1c1cccc(O)c1 (centres undefined) -13.1%
CCOC(=O)c1cccc(NC(=O)Cn2nc3c(cc2=O)CCCC3)c1 -3.67%
CCN(CC)C(=O)CSc1nnc2ccc3ccccc3n12 -10.8%
CCCn1cc(S(=O)(=O)c2cccc(Cl)c2)c(=O)c2cc(F)c(N3CCOCC3)cc21 -9.26%
Cc1ccc(-c2c(CN3CCN(c4cc(C)ccc4C)CC3)csc2C)cc1 -11.5%
Cc1c(C(=O)NC(C)c2ccccc2)sc2ncnc(N(C)C3CCCCC3)c12 (centres undefined) -19.2%
CCc1ccccc1NC(=O)CN1C(=O)CCn2nc(-c3cccn3C)cc21 -8.6%
Cc1ccc(-n2ncc3c(N4CCN(c5ccccc5)CC4)ncnc32)cc1C -9.62%
CCOC(=O)C1CCN(S(=O)(=O)c2cc(-c3onc(C)c3C)ccc2C)CC1 -0.367%
Cc1cccc(NC(=O)CN(c2ccc(C(C)C)cc2)S(=O)(=O)c2c(C)nn(C)c2C)c1C -13.4%
